According to PubChem BioAssay (EPA / NIEHS):
For some of these results: What follows is the remainder of the data, with few or none of the hits. Records with an inconclusive call do not appear. Only a part is listed here, and it is no random draw. The source made the active and inactive calls. How the source made its calls, unless noted: active means hit-call score of the fitted dose curve at least 0.9, where 1 is the maximum; inactive means score below 0.9.

Columns and labels:
[1] = read-out: Intercellular Adhesion Molecule 1 (ICAM1), ICAM1 (gene 3383); assay: BSK_3C_ICAM1: BioMAP Diversity Plus: 3C Assay for Intercellular Adhesion Molecule 1 (ICAM1) Biomarker Activity (AID 2283003); details: actives raise or lower the signal; primary human endothelial cells (HUVEC)
Procedure, shortened: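 ELISA readout of ICAM1 in human umbilical vein endothelial cells in the 3C system, taken 24 h post-dose. Gain or loss of signal versus DMSO was fitted in both directions, with SRB total-protein staining run in parallel.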

[2] = BSK_3C_SRB: Viability Assessment in the BioMAP Diversity Plus: 3C Assay (AID 2283023); details: primary human endothelial cells (HUVEC);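 further: cells read 24 h after compound dosing; fitted both ways against DMSO so a hit may be signal rise or drop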
Procedure, shortened: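 HUVEC, 24 h post-dose; 10% TCA fix, 0.1% SRB stain, A560 nm. Bidirectional curve fit vs DMSO negative control.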

[3] = BSK_3C_Vis: BioMAP Diversity Plus: 3C Assay for Morphology Visualization (AID 2283025); details: primary human endothelial cells (HUVEC);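 further: light microscopy image of cell morphology used as background control; fitted both ways so gain or loss versus DMSO counts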
Procedure, shortened: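 Light-microscopy visualization of HUVEC cultures at 24 h post-treatment, with DMSO as baseline for bidirectional fitting.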

[4] = read-out: Human Leukocyte Antigen - DR isotype (HLADR), HLA-DRA (gene 3122); assay: BSK_BE3C_HLADR: BioMAP Diversity Plus: BE3C Assay for Human Leukocyte Antigen - DR isotype (HLADR) Biomarker Activity (AID 2283032); details: actives raise or lower the signal; primary human bronchial epithelial cells
Procedure, shortened: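 Cell-surface HLA-DR ELISA readout at 24 h after dosing in the BE3C primary human lung bronchial epithelial system; gain or loss of signal against DMSO, with parallel sulforhodamine B staining of total protein for overt cytotoxicity.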

[5] = read-out: Collagen III, COL3A1 (gene 1281); assay: BSK_hDFCGF_CollagenIII: BioMAP Diversity Plus: hDFCGF Assay for Collagen III Biomarker Activity (AID 2283056); details: actives raise or lower the signal; primary human foreskin fibroblasts
Procedure, shortened: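 hDFCGF primary human dermal fibroblasts; 24 h chemical exposure; collagen III by ELISA; bidirectional curve fit vs DMSO baseline (gain or loss of signal).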

[6] = read-out: Epidermal growth factor receptor (EGFR), EGFR (gene 1956); assay: BSK_hDFCGF_EGFR: BioMAP Diversity Plus: hDFCGF Assay for Epidermal growth factor receptor (EGFR) Biomarker Activity (AID 2283057); details: actives raise or lower the signal; primary human foreskin fibroblasts
Procedure, shortened: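 EGFR levels by ELISA in human dermal fibroblast cultures, 24 h post-treatment, fitted bidirectionally versus DMSO. Parallel wells stained with sulforhodamine B to detect overt cytotoxicity.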

[7] = read-out: TIMP metallopeptidase inhibitor 1 (TIMP1), TIMP1 (gene 7076); assay: BSK_hDFCGF_TIMP1: BioMAP Diversity Plus: hDFCGF Assay for TIMP metallopeptidase inhibitor 1 (TIMP1) Biomarker Activity (AID 2283062); details: actives raise or lower the signal; primary human foreskin fibroblasts
Procedure, shortened: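 ELISA readout of TIMP-1 from human dermal foreskin fibroblast cultures 24 h post-dosing. Curves were fitted in both directions against DMSO baseline, with SRB total-protein staining in parallel cultures as a cytotoxicity check.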

[8] = read-out: Interleukin-1 alpha (IL1a), IL1A (gene 3552); assay: BSK_LPS_IL1a: BioMAP Diversity Plus: LPS Assay for Interleukin-1 alpha (IL1a) Biomarker Activity (AID 2283080); details: actives raise or lower the signal; primary human HUVEC with PBMC
Procedure, shortened: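 HUVEC/PBMC co-culture, LPS system; 24 h after dosing; IL-1a by ELISA; gain or loss of signal fitted bidirectionally vs DMSO baseline.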

[9] = read-out: Monocyte Chemoattractant Protein-1 (MCP1), CCL2 (gene 6347); assay: BSK_SAg_MCP1: BioMAP Diversity Plus: SAg Assay for Monocyte Chemoattractant Protein-1 (MCP1) Biomarker Activity (AID 2283090); details: actives raise or lower the signal; primary human HUVEC with PBMC
Procedure, shortened: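 Values derive from bidirectional fitting of ELISA-measured MCP1 against DMSO controls. Readings were taken 24 h after dosing human vascular endothelial cells co-cultured with peripheral blood mononuclear cells under superantigen stimulation.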

[10] = read-out: Monokine induced gamma interferon (MIG), CXCL9 (gene 4283); assay: BSK_SAg_MIG: BioMAP Diversity Plus: SAg Assay for Monokine induced gamma interferon (MIG) Biomarker Activity (AID 2283092); details: actives raise or lower the signal; primary human HUVEC with PBMC
Procedure, shortened: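 ELISA readout of MIG/CXCL9; primary human umbilical vein endothelial cells co-cultured with peripheral blood mononuclear cells; 24 h post-dose; gain/loss fit vs DMSO baseline.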

[11] = read-out: Interleukin-8 (IL8), CXCL8 (gene 3576); assay: BSK_SAg_IL8: BioMAP Diversity Plus: SAg Assay for Interleukin-8 (IL8) Biomarker Activity (AID 2283094); details: actives raise or lower the signal; primary human HUVEC with PBMC
Procedure, shortened: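 ELISA readout of IL-8 from a superantigen-activated endothelial/PBMC primary human co-culture, taken 24 h post-dosing and fitted in both directions against DMSO; parallel SRB total-protein staining flags overt cytotoxicity.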

[12] = BSK_SAg_Proliferation: Cell Proliferation Assessment in the BioMAP Diversity Plus: SAg Assay (AID 2283095); details: primary human HUVEC with PBMC;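 further: relative cell number as total protein by SRB absorbance in sub-confluent culture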
Procedure, shortened: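 Relative cell number in the endothelial cell/PBMC co-culture was quantified at 96 h by SRB staining (0.1% SRB, 10% TCA fixation, read at 560 nm). Curves were fitted in both directions relative to DMSO baseline.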

[13] = target: rat Adrenergic Receptor, Beta (Adrb), Non-selective Binding, Adrb1 (gene 24925) (UniProt P18090); assay: NVS_GPCR_rAdrb_NonSelective: NovaScreen (NVS) G Protein-Coupled Receptor Assay for rat Adrenergic Receptor, Beta (Adrb), Non-selective Binding (AID 2283298; active means hit-call score of the fitted dose curve at least 0.9, where 1 is the maximum)
Sequence of UniProt P18090 (P18090 whole entry, looked up): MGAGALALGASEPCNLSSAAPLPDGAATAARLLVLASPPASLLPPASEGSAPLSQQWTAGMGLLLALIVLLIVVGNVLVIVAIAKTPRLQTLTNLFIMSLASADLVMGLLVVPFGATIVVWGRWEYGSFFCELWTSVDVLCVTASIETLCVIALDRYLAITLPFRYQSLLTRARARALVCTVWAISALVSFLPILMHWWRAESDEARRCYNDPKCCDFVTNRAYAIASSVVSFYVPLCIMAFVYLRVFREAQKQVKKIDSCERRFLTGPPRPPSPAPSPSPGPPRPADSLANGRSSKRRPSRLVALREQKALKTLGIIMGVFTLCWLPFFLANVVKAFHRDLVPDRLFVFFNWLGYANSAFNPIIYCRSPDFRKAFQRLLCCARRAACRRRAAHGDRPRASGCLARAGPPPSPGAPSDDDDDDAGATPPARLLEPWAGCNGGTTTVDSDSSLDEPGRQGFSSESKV
Procedure, shortened: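 Rat cortical membranes incubated 1 h with beta-adrenergic radioligand and test chemical; bound ligand measured by filtration and scintillation counting. Screen at 25 uM duplicate, then concentration series with 50 uM maximum; loss of signal versus DMSO.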

[14] = target: rat Opioid Receptor, Non-selective Binding, Oprm1 (gene 25601) (UniProt P33535); assay: NVS_GPCR_rOpiate_NonSelective: NovaScreen (NVS) G Protein-Coupled Receptor Assay for rat Opioid Receptor, Non-selective Binding (AID 2283318; active means hit-call score of the fitted dose curve at least 0.9, where 1 is the maximum)
Sequence of UniProt P33535 (P33535 whole entry, looked up): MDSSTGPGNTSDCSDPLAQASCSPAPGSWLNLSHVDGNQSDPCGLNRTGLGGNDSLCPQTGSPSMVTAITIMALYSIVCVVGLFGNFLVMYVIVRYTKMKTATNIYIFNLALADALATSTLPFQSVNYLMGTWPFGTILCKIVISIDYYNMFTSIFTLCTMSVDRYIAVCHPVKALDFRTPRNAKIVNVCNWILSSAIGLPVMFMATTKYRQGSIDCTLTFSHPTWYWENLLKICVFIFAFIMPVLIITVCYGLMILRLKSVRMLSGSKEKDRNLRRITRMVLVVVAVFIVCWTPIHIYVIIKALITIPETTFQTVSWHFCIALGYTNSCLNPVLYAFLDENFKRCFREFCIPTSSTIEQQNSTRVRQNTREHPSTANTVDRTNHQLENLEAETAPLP
Procedure, shortened: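 Filter-based radioligand displacement using rat forebrain membrane preparations, measured 1.5 h post-dosing. Single-concentration duplicate screen at 25 uM, follow-up in concentration series; activity taken as signal loss relative to DMSO.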

[15] = target: rat Peripheral-type Benzodiazepine Receptor (PBR), Tspo (gene 24230) (UniProt P16257); assay: NVS_MP_rPBR: NovaScreen (NVS) Membrane Protein Assay for rat Peripheral-type Benzodiazepine Receptor (PBR) (AID 2283335; active means hit-call score of the fitted dose curve at least 0.9, where 1 is the maximum)
Sequence of UniProt P16257 (P16257 whole entry, looked up): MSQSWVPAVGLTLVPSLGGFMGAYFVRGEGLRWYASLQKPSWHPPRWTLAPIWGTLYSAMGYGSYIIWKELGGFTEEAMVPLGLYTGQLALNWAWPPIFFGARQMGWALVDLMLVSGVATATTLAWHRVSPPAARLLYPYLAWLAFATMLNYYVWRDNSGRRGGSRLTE
Procedure, shortened: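 Competitive displacement of specific radioligand from rat kidney membrane PBR, read by filtration and scintillation after 1 h. Compounds first tested at 25 uM in duplicate, then in concentration series; signal loss relative to DMSO.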

[16] = read-out: flavin-containing dimethylaniline monooxygenases 3 (FMO3), FMO3 (gene 2328); assay: LTEA_HepaRG_FMO3: Life Technologies and Expression Analysis (LTEA) Assay for flavin-containing dimethylaniline monooxygenases 3 (FMO3) using HepaRG (AID 2283453); details: actives raise or lower the signal; mRNA level, 48 h;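 further: differentiated human HepaRG liver cells in serum-free induction medium; FMO3 transcript by TaqMan qRT-PCR normalized to ACTB GAPDH and POLR2A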
Procedure, shortened: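 FMO3 transcript quantified by TaqMan qRT-PCR against three housekeeping genes after 48 h chemical exposure of HepaRG cells. Eight-point half-log series, top 100 uM, 0.5% DMSO vehicle; phenobarbital 1mM induction control; up- or down-regulation fitted.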

[17] = read-out: Peroxisomal acyl-coenzyme A oxidase 1 (ACOX1) gene, ACOX1 (gene 51); assay: LTEA_HepaRG_ACOX1: Life Technologies and Expression Analysis (LTEA) Assay for Peroxisomal acyl-coenzyme A oxidase 1 (ACOX1) gene using HepaRG (AID 2283467); details: actives raise or lower the signal; mRNA level, 48 h
Procedure, shortened: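 Human HepaRG hepatic cultures, 48 h treatment with test chemicals up to 100 uM. ACOX1 expression read by qRT-PCR relative to 0.5% DMSO vehicle.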

[18] = read-out: succinate dehydrogenase complex iron sulfur subunit B (SDHB), SDHB (gene 6390); assay: LTEA_HepaRG_SDHB: Life Technologies and Expression Analysis (LTEA) Assay for succinate dehydrogenase complex iron sulfur subunit B (SDHB) using HepaRG (AID 2283528); details: actives raise or lower the signal; mRNA level, 48 h
Procedure, shortened: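 SDHB transcript level read by TaqMan qRT-PCR, housekeeping-normalised (ACTB, GAPDH, POLR2A), after 48 h chemical treatment of plated HepaRG cells; eight concentrations top 100 uM, half-log steps, 0.5% DMSO, duplicates; fitted both directions against DMSO.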

[19] = ACEA_AR_antagonist_AUC_viability: ACEA Biosciences xCELLigence Real-Time Cell Analysis on Androgen Receptor Antagonism for Viability (AID 2283776; active means hit-call score of the fitted dose curve at least 0.9, where 1 is the maximum;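 further: 22Rv1 human prostate cancer cells growing on impedance electrode plates; area under impedance growth curve at 80 h after dosing as viability; hits lower the growth signal relative to DMSO meaning cytotoxicity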)
Procedure, shortened: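 Impedance read-out (RT-CES): area under growth curve at 80 h post-dose, loss of signal scored vs DMSO baseline. 22Rv1 cells; 8-pt 1:4 series, top 100 uM final, ≤0.5% DMSO; biological duplicate.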

[20] = CCTE_Shafer_MEA_acute_cross_correlation_area: CCTE's Neural Acute Assay for Area of Cross Correlation, Shafer Lab (AID 2284024);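 further: rat primary cortical neuron networks on 48-well MEA at DIV 13 or 15 with 40 min exposure; area under pooled inter-electrode spike cross-correlation near zero lag as percent change from own baseline; curves fitted for loss of cross-correlation area so actives lower synchrony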
Procedure, shortened: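 Rat cortical cultures, DIV 13/15, MEA; spikes detected at 8x rms noise (300-5000 Hz band-pass). Compound 0.03-40 uM, ≥3 wells each. Readout: % change in pooled inter-electrode cross-correlation area vs own baseline; DMSO negative control.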

DIO2 (gene 1734) = assay: CCTE_GLTED_hDIO2: CCTE's human Deiodinase 2 (DIO2) Inhibition Assay, Great Lakes Toxicology and Ecology Division (GLTED) Lab (AID 2284050; active means hit-call score of the fitted dose curve at least 0.9, where 1 is the maximum)
Procedure, shortened: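 Iodide released by human deiodinase 2 over 3 h with test chemical, measured spectrophotometrically via Sandell-Kolthoff cerium/arsenic reaction. Run n=3; inhibition referenced to DMSO.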

[21] = CCTE_Mundy_HCI_Cortical_NOG_NeuriteCount: CCTE's Neurite Outgrowth Assay in rat cortical cells for Neurite Count, Mundy Lab (AID 2284212);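 further: cells fixed about two days after chemical exposure began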
Procedure, shortened: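 Rat cortical primary cells; compound added 2 h post-plating, 1/10 dilution of working solution. Anti-betaIII-tubulin/AF488 ICC; ArrayScan neurite count vs DMSO.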

[22] = UKN4_HCS_LUHMES_cell_viability: Viability Assessment in the University of Konstanz (UKN) Leist Lab Neurite Outgrowth Assay in human LUHMES cells (UKN4) (AID 2284232)
Procedure, shortened: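 Viability was read by high-content imaging of calcein-AM/H-33342-stained cells after 24 h toxicant exposure, staining included. Cells: human LUHMES on day 2 of dopaminergic differentiation, dosed shortly after attachment; DMSO baseline, bidirectional curve fitting.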

[23] = CCTE_Mundy_HCI_Cortical_NOG_NeuronCount: CCTE's Neurite Outgrowth Assay in rat cortical cells for Neuron Count, Mundy Lab (AID 2284236; active means hit-call score of the fitted dose curve at least 0.9, where 1 is the maximum;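 further: neurons counted by imaging betaIII-tubulin and Hoechst stained cortical cells; cells exposed to compound for about 48 hours before fixation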)
Procedure, shortened: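 Read-out: neuron number by high-content imaging of betaIII-tubulin (Alexa Fluor-488) and Hoechst-labelled rat primary cortical cells.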

[24] = IUF_NPC1_cytotoxicity_72hr: Cytotoxicity Assessment at 72 hours in the Leibniz Research Institute for Environmental Medicine (IUF) Neural Progenitor Cell Proliferation Assay (NPC1) (AID 2284332; active means hit-call score of the fitted dose curve at least 0.9, where 1 is the maximum;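 further: rising LDH signal means more cytotoxicity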)
Procedure, shortened: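 Cytotoxicity by LDH membrane-integrity assay on medium supernatants, fluorescence via resazurin reduction, after 3-day single exposure of primary hNPC spheres at 37C, pH 7.2-7.6 with growth factors. Fitted upward against baseline.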

Measured: AC50

CN(C)CCCN1c2ccccc2Sc2ccc(Cl)cc21
inactive: [1] | [6] | [7] | [13] | [15] | [19] | [20]
active: [2] 27.9 µM | [3] 16.3 µM | [4] 28.8 µM | [5] 20 µM | [8] 31.1 µM | [9] 27.9 µM | [10] 34 µM | [11] 21.7 µM | [12] 14.8 µM | [14] 11.4 µM | [16] 70.2 µM | [17] 71 µM | [18] 12 µM | DIO2 (gene 1734) 101 µM | [21] 10.6 µM | [22] 18.5 µM | [23] 15.5 µM | [24] 15.2 µM
